Laboratory results reported in PubChem BioAssay AID1671194 (National Center for Advancing Translational Sciences (NCATS), 2021).
About 240 (0.17%) of roughly 140,000 compounds were called active. Inconclusive results, whose numbers are uncertain, are shown with a selection of clear calls. The call rests on the fitted dose curve; in most records, active means well fitted inhibition curve with a large enough effect; inconclusive means small, poorly fitted or top-dose-only effect; inactive means no such curve, though single readings can be large or run the other way. Potencies beside an inconclusive call are fits to weak or partial responses and may not hold up.
Potency means the concentration at half of the fitted maximal effect; tags describe the fitted curve by direction and shape.

Assay: Primary qHTS assay for inhibitors of alpha-synuclein gene (SNCA) expression; further: nearly all actives have a fitted effect of over 45% in size
Settings: HEK-293 SNCA-luciferase knock-in, luminescence, 24 h; series mostly up to 57.2 µM
With `Cc1nnc(N2CCC(C(=O)Nc3ccc(F)cc3)CC2)c2nn(-c3ccc(Cl)cc3)c(C)c12` the Potency was inconclusive: 35.5 µM [inhibitor, single point].
In the case of `Cc1ccc(C(=O)Nc2c(-c3ccccc3)nc3ccccn23)cc1`, the Potency is reported as inconclusive: 28.2 µM [inhibitor, single point].
In the case of `CCOc1ccc(NC(=O)CSc2nc3c(oc4ccccc43)c(=O)n2-c2cc(C)cc(C)c2)cc1`, the Potency is reported as inconclusive: 22.4 µM [inhibitor, single point].
With `CCS(=O)(=O)N1CCc2n[nH]c(=O)n2CC1` the Potency was inconclusive: 7.94 µM [inhibitor, single point].
For `CN(C1CCc2nn(CC3CC3)c(=O)n2CC1)S(=O)(=O)c1ccccc1F` (stereo unspecified), the Potency was inconclusive: 1.41 µM [inhibitor, full curve, poor fit].
With `O=C(NCc1cccc(Cl)c1)C1CCN(c2nc3ncccc3o2)CC1` the Potency was “inactive”.
In the case of `CC(=O)Nc1ccc(CN2CC3CCC(C2)N3c2ccc(C(F)(F)F)cc2)cc1`, the Potency is reported as “inactive”.
With `CC1=C[C@@H](CNC(=O)C2CCCCC2)[C@H](C(C)C)C[C@H]1Cc1nc2ccc(F)cc2[nH]1` the Potency was inconclusive: 22.4 µM [inhibitor, partial curve].
For `COc1ccc(C(=O)N2C[C@@H]3C[C@H](C2)c2c(NC(=O)Nc4ccccc4)ccc(=O)n2C3)cc1`, the Potency was inconclusive: 8.91 µM [inhibitor, single point].
With `O=C(c1ccccc1F)N1CCCC(c2nn(-c3ccc(Cl)cc3)c(=O)[nH]2)C1` (stereo unspecified) the Potency was inconclusive: 0.708 µM [inhibitor, full curve, poor fit].
In the case of `COc1ccc(-c2nc3c(c(=O)[nH]2)CCN(C(=O)c2cc(Cl)ccc2OC)C3)cc1`, the Potency is reported as inconclusive: 8.91 µM [inhibitor, single point].
In the case of `O=C(c1ccoc1)N1CCC(Cc2nc(-c3ccncc3)n[nH]2)C1` (stereo unspecified), the Potency is reported as inconclusive: 3.55 µM [inhibitor, full curve].
With `CCCCS(=O)(=O)Nc1ccc([C@H]2OCC(=O)N(Cc3ccccc3)[C@@H]2CO)cc1` the Potency was inconclusive: 2.82 µM [inhibitor, partial curve, poor fit].
For `CCOC(=O)N1CCc2c(sc(NCc3cccc(F)c3)c2C(=O)Nc2ccc(OC)cc2OC)C1`, the Potency was inconclusive: 11.2 µM [inhibitor, partial curve, poor fit].
In the case of `Cc1sc2ccn(CC(C)C)c(=O)c2c1C(=O)NCc1cc(F)cc(F)c1`, the Potency is reported as inconclusive: 20 µM [inhibitor, single point].
In the case of `Cc1cc(N)c2ccccc2[n+]1CCCCCCCCCC[n+]1c(C)cc(N)c2ccccc21`, the Potency is reported as inconclusive: 12.6 µM [inhibitor, partial curve, poor fit].
For `COC1CCC(C(=O)N2CCCn3nc(C)c(-c4ccccc4Oc4ccccc4)c32)CC1` (stereo unspecified), the Potency was “inactive”.
With `CC(C)NC(=O)C1CCC(=O)N1C1CCN(C(=O)C2CCC2)CC1` (stereo unspecified) the Potency was “inactive”.
In the case of `Clc1ccc(-c2cnc([C@@H]3COCCN3Cc3csnn3)[nH]2)cc1`, the Potency is reported as inconclusive: 56.2 µM [inhibitor, single point].
With `Cc1ccc(S(=O)(=O)N2CCCc3cc(NS(=O)(=O)c4cc(F)ccc4F)ccc32)cc1` the Potency was inconclusive: 3.55 µM [inhibitor, partial curve, poor fit].
For `CC1(C(=O)NCC2CC2)COCc2cnc(Nc3ccccc3)nc21` (stereo unspecified), the Potency was “inactive”.
For `CCOC(=O)c1ccc(N2C(=O)c3n[nH]c(-c4ccco4)c3C2c2ccc(OCC)cc2)cc1` (stereo unspecified), the Potency was active: 20 µM.
In the case of `CN(C)CC1(O)CCCN(Cc2ccc(Oc3ccc(Cl)cc3)cc2)C1` (stereo unspecified), the Potency is reported as inconclusive: 39.8 µM [inhibitor, single point].
In the case of `CCN1C(=O)C2(CCN(C(=O)c3ccc(OC(C)C)cc3)CC2)c2ccccc21`, the Potency is reported as “inactive”.
In the case of `Cc1cc(NC(=O)c2ccc(CN3CC[C@H](O)C3)cc2)ccc1F`, the Potency is reported as inconclusive: 5.01 µM [inhibitor, partial curve, poor fit].
For `COc1ccccc1NC(=O)C1=C(C)Nc2nc(CCCO)nn2C1c1cccc(O)c1` (stereo unspecified), the Potency was “inactive”.
For `O=C(c1ccccc1F)N1CCC2(CC1)NCCc1c2[nH]c2ccccc12`, the Potency was “inactive”.
In the case of `Cc1nn2c(=O)cc(COC(=O)Cc3ccccc3)nc2s1`, the Potency is reported as inconclusive: 7.08 µM [inhibitor, single point].
With `c1ccc(-c2ccccc2Nc2cnc3ccc(N4CCOCC4)nn23)cc1` the Potency was “inactive”.
For `Cc1c(C(=O)Nc2ccc(C(=O)O)cc2)nnn1-c1ccccc1`, the Potency was “inactive”.
For `O=C(c1nc2cccnc2n(C2CC2)c1=O)N1CCN([S+](=O)([O-])c2cccs2)CC1`, the Potency was “inactive”.
With `COCC1CN(C)CC12CCN(S(=O)(=O)c1cc(F)cc(F)c1)CC2` (stereo unspecified) the Potency was “inactive”.
For `COc1ccc(NC(=O)CN2C(=O)COc3ccc(S(=O)(=O)N4CCCCCC4)cc32)cc1`, the Potency was inconclusive: 31.6 µM [inhibitor, single point].
With `CC(C)c1nc2c(c(-c3ccc(Cl)cc3)n1)CCN(Cc1cccc3ccccc13)CC2` the Potency was inconclusive: 7.94 µM [inhibitor, single point].
For `Cc1cccc(NC(=O)CSc2ccc(-c3ccccn3)nn2)c1`, the Potency was inconclusive: 0.501 µM [inhibitor, full curve, poor fit].
With `CCc1ccc(N(CC)C(=O)c2cc3c(=O)oc4ccc(C)cc4c3s2)cc1` the Potency was inconclusive: 39.8 µM [inhibitor, partial curve, poor fit].
In the case of `COc1cccc(Cn2c(Oc3cc(C)cc(C)c3)nc3c2c(=O)n(C)c(=O)n3C)c1`, the Potency is reported as inconclusive: 2.51 µM [inhibitor, partial curve, poor fit].
For `CCc1ccc(S(=O)(=O)N(C(=O)c2ccncc2)c2ccc3oc(C)c(C(=O)OC)c3c2)cc1`, the Potency was inconclusive: 31.6 µM [inhibitor, single point].
With `CCOC(=O)c1ccc(N2C(=O)c3n[nH]c(-c4ccco4)c3C2c2ccc(C)cc2)cc1` (stereo unspecified) the Potency was inconclusive: 12.6 µM [inhibitor, partial curve, poor fit].
In the case of `COc1ccc(-c2cc3c(=O)n(CCNC(=O)c4cc(F)cc(F)c4)ccn3n2)cc1`, the Potency is reported as “inactive”.
With `O=C(O)C(c1cc2ccccc2o1)N1CCC(CCN2CCCC2=O)CC1` (stereo unspecified) the Potency was inconclusive: 10 µM [inhibitor, single point].
